From PubChem BioAssay AID504333 (National Center for Advancing Translational Sciences (NCATS), 2011)
Screen size: about 360,000 compounds; about 16,000 (4.4%) were called active. Inconclusive results, whose numbers are uncertain, are shown with a selection of clear calls. Calls follow the shape of the dose curve; as a rule, active = well fitted inhibition curve with a large enough effect; inconclusive = small, poorly fitted or top-dose-only effect; inactive = no such curve, though single readings can be large or run the other way. Where the call is inconclusive, the potency comes from a doubtful curve fit.
% is scaled to controls: 0 for no effect and ±100 for the full control effect; potency is read from the fitted curve at half-maximal effect; tags tell the direction and shape of the fitted curve.
Also: nearly all actives have a fitted effect of over 60% in size.

What follows are molecules tested against Bromodomain adjacent to zinc finger domain protein 2B (Homo sapiens) (UniProt Q9UIF8) (assay: qHTS Assay for Inhibitors of BAZ2B). Conditions: AlphaScreen BAZ2B-H3K14Ac peptide displacement; activity change, negative = inhibition: at 114 µM (top of the series) unless noted.
Chain of UniProt Q9UIF8 (Q9UIF8 whole entry, looked up, the tested form may be a part): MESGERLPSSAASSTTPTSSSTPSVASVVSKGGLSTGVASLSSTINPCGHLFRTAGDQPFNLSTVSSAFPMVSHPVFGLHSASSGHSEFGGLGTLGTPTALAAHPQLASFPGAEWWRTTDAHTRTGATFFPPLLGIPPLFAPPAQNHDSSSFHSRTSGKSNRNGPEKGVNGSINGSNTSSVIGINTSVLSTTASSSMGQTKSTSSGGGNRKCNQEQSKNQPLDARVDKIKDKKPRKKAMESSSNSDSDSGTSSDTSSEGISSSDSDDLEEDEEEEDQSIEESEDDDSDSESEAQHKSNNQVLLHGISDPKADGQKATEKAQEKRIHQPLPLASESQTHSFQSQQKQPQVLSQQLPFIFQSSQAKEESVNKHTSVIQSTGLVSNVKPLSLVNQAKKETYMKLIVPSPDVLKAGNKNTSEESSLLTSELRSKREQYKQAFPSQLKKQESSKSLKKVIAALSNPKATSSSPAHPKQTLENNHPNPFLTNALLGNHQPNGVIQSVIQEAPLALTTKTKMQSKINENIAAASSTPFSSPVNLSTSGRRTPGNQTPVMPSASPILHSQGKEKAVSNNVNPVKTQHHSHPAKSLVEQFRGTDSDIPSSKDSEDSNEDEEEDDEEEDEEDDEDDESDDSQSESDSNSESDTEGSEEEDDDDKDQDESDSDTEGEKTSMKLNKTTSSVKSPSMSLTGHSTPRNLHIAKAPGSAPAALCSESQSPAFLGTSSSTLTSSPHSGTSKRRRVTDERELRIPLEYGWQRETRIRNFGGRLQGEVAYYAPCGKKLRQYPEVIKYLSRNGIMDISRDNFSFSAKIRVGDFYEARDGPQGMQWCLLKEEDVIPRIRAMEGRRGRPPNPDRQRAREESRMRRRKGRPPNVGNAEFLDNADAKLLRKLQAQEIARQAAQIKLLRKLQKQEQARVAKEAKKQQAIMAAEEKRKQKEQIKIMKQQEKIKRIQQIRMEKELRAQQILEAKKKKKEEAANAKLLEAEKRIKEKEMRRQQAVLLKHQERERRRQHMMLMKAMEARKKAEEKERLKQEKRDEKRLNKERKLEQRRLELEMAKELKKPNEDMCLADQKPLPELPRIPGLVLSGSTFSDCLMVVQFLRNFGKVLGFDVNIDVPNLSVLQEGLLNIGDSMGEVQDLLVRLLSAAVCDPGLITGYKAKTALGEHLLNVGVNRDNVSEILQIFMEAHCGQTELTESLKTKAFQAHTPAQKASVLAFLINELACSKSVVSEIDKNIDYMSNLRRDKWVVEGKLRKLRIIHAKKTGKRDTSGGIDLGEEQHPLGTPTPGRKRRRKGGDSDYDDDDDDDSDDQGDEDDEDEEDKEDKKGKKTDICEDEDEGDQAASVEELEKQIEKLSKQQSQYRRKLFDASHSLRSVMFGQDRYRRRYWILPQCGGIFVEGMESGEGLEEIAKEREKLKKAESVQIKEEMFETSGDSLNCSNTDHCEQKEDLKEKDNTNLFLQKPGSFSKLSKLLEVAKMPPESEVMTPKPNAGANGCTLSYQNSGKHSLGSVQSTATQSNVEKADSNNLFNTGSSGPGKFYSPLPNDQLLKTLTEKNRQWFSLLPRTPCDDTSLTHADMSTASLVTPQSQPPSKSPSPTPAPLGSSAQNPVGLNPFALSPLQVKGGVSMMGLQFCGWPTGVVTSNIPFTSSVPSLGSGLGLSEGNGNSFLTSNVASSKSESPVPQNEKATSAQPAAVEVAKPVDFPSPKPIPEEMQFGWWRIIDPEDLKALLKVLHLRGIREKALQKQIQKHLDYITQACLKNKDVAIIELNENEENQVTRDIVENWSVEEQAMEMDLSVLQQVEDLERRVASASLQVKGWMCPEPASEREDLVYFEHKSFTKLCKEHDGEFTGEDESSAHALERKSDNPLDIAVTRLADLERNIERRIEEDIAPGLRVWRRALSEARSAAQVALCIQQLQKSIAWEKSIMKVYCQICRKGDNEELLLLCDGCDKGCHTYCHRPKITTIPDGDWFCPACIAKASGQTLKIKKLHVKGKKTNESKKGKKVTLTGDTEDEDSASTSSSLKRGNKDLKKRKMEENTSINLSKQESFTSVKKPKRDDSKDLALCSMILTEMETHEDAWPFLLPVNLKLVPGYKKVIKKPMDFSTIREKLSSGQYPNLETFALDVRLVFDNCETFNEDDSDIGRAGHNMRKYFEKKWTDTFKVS
In short: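 BAZ2B (50 nM) with biotin-H3(5-23)K14Ac peptide (50 nM) in PBS pH 7.4, 0.01% Tween-20, preformed 30 min, then compound 30 min at room temperature; top concentration 110uM. AlphaScreen streptavidin donor/nickel chelate acceptor beads (10 ug/mL final), 20 min dark, signal read.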
In the case of `CCC(NC(=O)c1ccccc1NC(=O)c1ccccc1)C(=O)O` (stereo unspecified), the Potency is reported as inconclusive: 79.4 µM [inhibitor, single point]. With `Cc1cccc(NC(=O)c2sc3nc4c(c(-c5cccs5)c3c2N)CN(C)CC4)c1` the Potency was inconclusive: 89.1 µM [inhibitor, single point]. With `CCCOc1ccc2ccccc2c1/C=C1\SC(=O)NC1=O` the Potency was inconclusive: 89.1 µM [inhibitor, single point]. For `C=C(C)CN(CC)C(=O)COc1ccc(S(=O)(=O)Nc2ccc(OC)cc2)cc1`, the Potency was inconclusive: 89.1 µM [inhibitor, single point]. `CCOc1cc(N2CCOCC2)c(OCC)cc1NC(=O)CSc1n[nH]c(N)n1` was tested, and the Potency was inconclusive: 5.01 µM [inhibitor, partial curve, poor fit]. `CC1Cc2ccccc2N1C(=O)c1ccc(N2CCCCC2)c([N+](=O)[O-])c1` (stereo unspecified) was tested, and the Potency was active: 31.6 µM. With `COc1ccc(OCC(=O)Sc2ccc(C)cc2)cc1` the “activity change, negative = inhibition” value was inactive: 146%. In the case of `c1ccc(CSc2nnc([C@@H]3CCCN3)o2)cc1`, the Potency is reported as active: 50.1 µM. With `CS(=O)(=O)N(CCc1ccccc1)CC(=O)NCc1ccccc1` the “activity change, negative = inhibition” value was inactive: 0.546%. `COc1ccc(-c2nc(CCNC(=O)c3cccs3)cs2)cc1OC` was tested, and the “activity change, negative = inhibition” value was inactive: 10.4%. `CCOc1ccc(-c2csc(N)c2C(=O)OC)cc1` was tested, and the Potency was inconclusive: 89.1 µM [inhibitor, single point]. For `COc1cc2cc(CNc3ccc(C)cc3)c(=O)n(CC(=O)Nc3ccc(C(C)C)cc3)c2cc1OC`, the “activity change, negative = inhibition” value was inactive: -6.29%. With `COc1ccc(NC(=O)CSc2nc(-c3ccc(OC)cc3)[nH]c2-c2ccc(F)cc2)cc1` the Potency was inconclusive: 89.1 µM [inhibitor, single point]. `CCOC(=O)c1c(CSc2ccccc2)n(C)c2ccc(O)c(CN3CCN(C)CC3)c12` was tested, and the Potency was inconclusive: 39.8 µM [inhibitor, partial curve]. With `Cc1cnc(C(=O)OCc2nc3ccsc3c(=O)[nH]2)cn1` the Potency was active: 50.1 µM. In the case of `Nc1nc(C23CC4CC(CC(Cl)(C4)C2)C3)cs1`, the Potency is reported as active: 70.8 µM. `O=C(N/C(=C\c1ccccc1)C(=O)N1CCN(CCO)CC1)c1ccccc1` was tested, and the “activity change, negative = inhibition” value was inactive: -1.43%. `Cc1ccccc1Cn1c(C)nc2ccc([N+](=O)[O-])cc2c1=O` was tested, and the Potency was inconclusive: 50.1 µM [inhibitor, partial curve]. `COc1cc(C(=O)OCC(=O)NCc2ccc(F)cc2)ccc1OCC(C)C` was tested, and the “activity change, negative = inhibition” value was inactive: -5.25%. For `Cc1ccc(-n2c(C)cc(C(=O)CSc3nnc4ccccn34)c2C)cc1`, the Potency was inconclusive: 79.4 µM [inhibitor, single point]. With `COc1ccc(-c2cc(C(=O)OCc3ccccn3)c3ccccc3n2)cc1` the Potency was inconclusive: 89.1 µM [inhibitor, single point]. `FC(F)(F)Oc1ccc(Nc2nc(N3CCOCC3)nc(N3CCOCC3)n2)cc1` was tested, and the Potency was inconclusive: 89.1 µM [inhibitor, single point]. With `Oc1c(Cl)cc(CN2CCOCC2)c2cccnc12` the Potency was active: 7.94 µM. In the case of `COc1ccccc1C(=O)CC(=O)c1ccccc1`, the “activity change, negative = inhibition” value is reported as inactive: 21.6%. In the case of `Cc1c(C#N)c(N)nc2c3c(sc12)NC(=O)CC3c1ccc(Cl)cc1` (stereo unspecified), the “activity change, negative = inhibition” value is reported as inactive: 1.57%. `Cc1cccc(N2C(=O)CS(=O)(=O)C23C(=O)N(C)c2ccccc23)c1` (stereo unspecified) was tested, and the “activity change, negative = inhibition” value was inactive: 7.67% [at 57.1 µM]. With `CCCCn1c(CNC(=O)C23CC4CC(CC(C4)C2)C3)nnc1SCC(=O)Nc1ccccc1` the Potency was inconclusive: 79.4 µM [inhibitor, partial curve]. In the case of `COc1ccc(NC(=O)c2cc(CN3C(=O)c4ccccc4C3=O)ccc2OC)cn1`, the Potency is reported as inconclusive: 89.1 µM [inhibitor, single point]. For `Cc1ccc2oc(C(=O)N(Cc3ccc(N(C)C)cc3)C3CCS(=O)(=O)C3)c(C)c2c1` (stereo unspecified), the Potency was active: 11.2 µM. `CCOc1ccc(CCNc2ncnc3onc(-c4ccc(F)cc4)c23)cc1OCC` was tested, and the “activity change, negative = inhibition” value was inactive: 1.11%. `COc1ccc2[nH]c3c(c2c1)CCN1C(=O)N([C@@H](C)C(=O)NCc2c(F)cccc2Cl)C(=O)[C@]31C` was tested, and the Potency was inconclusive: 56.2 µM [inhibitor, single point]. `O=C(NCCCn1ccnc1)c1ccc(-c2ccccc2)cc1` was tested, and the Potency was inconclusive: 70.8 µM [inhibitor, single point]. `NC(=O)Nc1ccc(F)cc1` was tested, and the Potency was inconclusive: 7.94 µM [inhibitor, single point]. In the case of `O=C(Nc1ccc(-c2cn3c(n2)SCC3)cc1)c1ccc2ccccc2n1`, the Potency is reported as inconclusive: 56.2 µM [inhibitor, single point]. `CN(CCOc1ccccc1)C(=O)c1ccc(N2CCCC2)c([N+](=O)[O-])c1` was tested, and the Potency was inconclusive: 63.1 µM [inhibitor, partial curve]. With `C/C(CC1CC(COCC(C)C)OC1=O)=N\Nc1nc(-c2ccccc2)cs1` (stereo unspecified) the Potency was inconclusive: 50.1 µM [inhibitor, partial curve]. For `Cn1c(=O)n(Cc2ccco2)c(=N)c2c3c(sc21)CCC3`, the Potency was inconclusive: 89.1 µM [inhibitor, single point]. `C=CCN1C=C/C(=C\C=C(C#N)C#N)c2ccccc21` was tested, and the Potency was active: 3.16 µM. `CCc1ccc(C(=O)c2cnc3ccc(C)cc3c2S(=O)(=O)c2ccc(OC)cc2)cc1` was tested, and the Potency was inconclusive: 56.2 µM [inhibitor, partial curve, poor fit]. `Cc1c(C(=O)O)sc2nc(/C=C/c3cccc(F)c3)[nH]c(=O)c12` was tested, and the Potency was inconclusive: 89.1 µM [inhibitor, single point]. For `CCOC(=O)c1ccc(N2CCOCC2)c(NC(=O)c2ccc3c(c2)OCO3)c1`, the “activity change, negative = inhibition” value was inactive: -4.42%. With `COc1ccc(CCNC(=O)CNCC2CCCCC2)cc1OC` the Potency was active: 56.2 µM. `Cc1cc(C)n(-c2cccc(F)n2)n1` was tested, and the “activity change, negative = inhibition” value was inactive: -11%. For `S=C1NCN(Cc2ccco2)CN1`, the “activity change, negative = inhibition” value was inactive: 1.32%. In the case of `O=[N+]([O-])c1ccc(C2CCCC/C2=N\OCc2cccc(F)c2)c([N+](=O)[O-])c1` (stereo unspecified), the Potency is reported as inconclusive: 39.8 µM [inhibitor, full curve]. `Oc1c(Br)cc(Br)cc1CNc1cccc2cccnc12` was tested, and the Potency was inconclusive: 39.8 µM [inhibitor, partial curve]. With `Cc1ccc(N/C=C(/C#N)c2ccsc2)cc1C` the Potency was inconclusive: 89.1 µM [inhibitor, single point]. `O=c1[nH]c(=O)c2nc3c4ccccc4c4ccccc4c3nc2[nH]1` was tested, and the Potency was active: 56.2 µM. With `CC(C)OC(=O)C1Cc2ccccc2CN1S(=O)(=O)c1cccs1` (stereo unspecified) the Potency was inconclusive: 89.1 µM [inhibitor, single point]. `Cc1ccc(C)c(N2CCN(C(=O)c3cccn3-c3nnc(N4CCCCC4)s3)CC2)c1` was tested, and the Potency was inconclusive: 44.7 µM [inhibitor, partial curve]. In the case of `CCOC(=O)c1cnc2nc(C(F)(F)F)[nH]n2c1=O`, the Potency is reported as inconclusive: 100 µM [inhibitor, single point]. `CCOc1cc(N2CCOCC2)c(OCC)cc1NC(=O)COC(=O)CCc1c[nH]c2ccccc12` was tested, and the Potency was inconclusive: 79.4 µM [inhibitor, single point]. In the case of `Clc1ccc(OCCn2ccnc2)c(Cl)c1`, the Potency is reported as active: 50.1 µM. For `Cc1ccc(-c2nc3ncccn3c2Nc2ccccc2C)o1`, the “activity change, negative = inhibition” value was inactive: -26.3%. `Cc1ccc(S(=O)(=O)CC(=O)N2CC(C)OC(C)C2)cc1` (stereo unspecified) was tested, and the “activity change, negative = inhibition” value was inactive: -10.7%. With `COc1cc(OC)c2c(C)cc(=O)oc2c1C(CCN1CCN(c2ccccc2)CC1)c1ccc2c(c1)OCO2` (stereo unspecified) the Potency was active: 25.1 µM. In the case of `O=C(Cn1cc2c(n1)CCCCC2)Nc1ccccc1Cl`, the “activity change, negative = inhibition” value is reported as inactive: 0.783%. `COc1ccc(C(CC(=O)Nc2ccc(OC)c(OC)c2)N2Cc3ccccc3C2=O)cc1` (stereo unspecified) was tested, and the Potency was active: 79.4 µM. `C(=N\NC1=Nc2cccc3cccc1c23)/c1cccnc1` was tested, and the Potency was active: 39.8 µM. In the case of `COc1ccc(NC(=S)NNC(=O)CNc2ccc(Cl)cc2)cc1`, the Potency is reported as inconclusive: 89.1 µM [inhibitor, single point]. `COc1ccc(OC)c(CCNC(=O)c2ccc3[nH]c(C)c(C)c3c2)c1` was tested, and the Potency was inconclusive: 31.6 µM [inhibitor, single point]. In the case of `Nc1c2c(nc3ccc(Br)cc13)N(C1CCCCC1)CC2`, the Potency is reported as active: 15.8 µM. For `CC(C)(C)C1CCC(C(=O)OCC(=O)Nc2ccc3[nH]c(=O)[nH]c3c2)CC1` (stereo unspecified), the “activity change, negative = inhibition” value was inactive: -1.66%. `Cc1ccccc1OCC(=O)Nc1ccccc1C(=O)OCc1cc(=O)n2c(C)csc2n1` was tested, and the “activity change, negative = inhibition” value was inactive: -3.94%. With `COCc1ccc(C(=O)NC2CCCc3c2cnn3-c2cc(C)cc(C)c2)s1` (stereo unspecified) the “activity change, negative = inhibition” value was inactive: 4.28%. `COc1ccccc1C(=O)NCC(c1ccco1)N1CCc2ccccc21` (stereo unspecified) was tested, and the Potency was active: 50.1 µM. `CCOC(=O)C1=C(CS(=O)(=O)c2ccc(Cl)cc2)NC(=O)NC1c1ccc(O)c(OC)c1` (stereo unspecified) was tested, and the Potency was inconclusive: 79.4 µM [inhibitor, single point]. `CCN1CCN(C2=C(NS(=O)(=O)c3ccccc3)C(=O)c3ccccc3C2=O)CC1` was tested, and the Potency was inconclusive: 56.2 µM [inhibitor, partial curve]. For `CCCn1c(SCC(=O)NC2CCCC2)nnc1-c1ccccn1`, the Potency was inconclusive: 89.1 µM [inhibitor, single point]. `O=S(=O)(Nc1cccnc1)c1cccc(Cl)c1` was tested, and the “activity change, negative = inhibition” value was inactive: -2.13%. In the case of `NC(=O)c1ccc(NC(=O)C2COc3ccccc3O2)cc1` (stereo unspecified), the “activity change, negative = inhibition” value is reported as inactive: 6.33%. With `CCn1nc(C)c(CN2CCc3c([nH]c4ccccc34)C2c2ccc(F)c(OC)c2)c1C` (stereo unspecified) the Potency was inconclusive: 35.5 µM [inhibitor, full curve]. With `COC(=O)CCCC1=CC2=CC(=O)C(C)(OC(=O)CCc3ccccc3)C(=O)C2=CO1` (stereo unspecified) the Potency was active: 56.2 µM. `Cc1nonc1NC(=O)OC1CCCCC1` was tested, and the “activity change, negative = inhibition” value was inactive: -6.54%. `COc1cnc(-c2ccccn2)nc1N(C)c1ccccc1` was tested, and the Potency was active: 20 µM. For `CCOC(=O)C1=C(c2ccccc2)N=c2s/c(=C\c3cc(OC)c(OC)c(OC)c3)c(=O)n2C1c1cccs1` (stereo unspecified), the Potency was inconclusive: 56.2 µM [inhibitor, partial curve].
